According to PubChem BioAssay AID686979 (National Center for Advancing Translational Sciences (NCATS), 2013):
The campaign covered roughly 420,000 compounds. About 50,000 (12%) were called active. Inconclusive results, whose numbers are uncertain, are shown with a selection of clear calls. The call rests on the fitted dose curve; in most records, active means well fitted inhibition curve with a large enough effect; inconclusive means small, poorly fitted or top-dose-only effect; inactive means flat fitted curve, though single readings scatter. Potencies of inconclusive entries are left out as doubtful fits.

Test: qHTS for Inhibitors of human tyrosyl-DNA phosphodiesterase 1 (TDP1): qHTS in cells in presence of CPT; further: nearly all actives have a fitted effect of over 55% in size
Conditions: chicken DT40 Tdp1-/-;hTDP1 cells + 20 nM CPT, ATP luminescence, 48 h; activity change, negative = growth inhibition: at 46.2 µM (top of the series) unless noted
Outline: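 Chicken DT40 Tdp1-/- cells complemented with human TDP1, 400 cells/well, exposed to compounds plus 20 nM camptothecin for at least 48 h at 37 C; viability read as ATP content by CellTiter-Glo luminescence.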
On the % scale 0 is the no-effect control and ±100 the full control effect; potency means the concentration at half of the fitted maximal effect; tags describe the fitted curve by direction and shape.

| SMILES | activity change, negative = growth inhibition | Potency |
| --- | --- | --- |
| CCOCCCN(Cc1ccco1)S(=O)(=O)c1csc(C(N)=O)c1 | inactive: -11.9% | – |
| O=C(NCc1n[nH]c(=S)n1-c1ccc([N+](=O)[O-])cc1)c1ccc(S(=O)(=O)N2CCOCC2)cc1 | inactive: -7.36% | – |
| COCCNC(=O)/C(C#N)=C/c1c(F)cccc1Cl | – | inconclusive [inhibitor, single point] |
| CCN(C(=O)C1CCC(CNS(=O)(=O)c2cccc3nsnc23)CC1)c1cccc(C)c1 (stereo not given) | – | inconclusive [inhibitor, single point] |
| c1ccc(CCn2nnnc2C(c2cccs2)N2CCN(Cc3ccc4c(c3)OCO4)CC2)cc1 (stereo not given) | – | inconclusive [inhibitor, single point] |
| CCN(C(=O)C1CCC(CNS(=O)(=O)c2cccc3nsnc23)CC1)c1ccccc1 (stereo not given) | – | inconclusive [inhibitor, single point] |
| CCN(CC(=O)Nc1ccc2c(c1)OCCO2)Cc1cc(=O)n2ccsc2n1 | inactive: 1.07% | – |
| Cc1oc2ncnc(N3CCOCC3)c2c1C(=O)N1CCN(c2cccc(C(F)(F)F)c2)CC1 | – | inconclusive [inhibitor, single point] |
| CCCCCCn1cc(CN2CC(N3CCN(Cc4cccc(C)c4)CC3)CS2(=O)=O)nn1 (stereo not given) | – | inconclusive [inhibitor, single point] |
| Cn1nnnc1SCC(=O)Nc1nc(-c2ccc(F)c(F)c2)cs1 | – | inconclusive [inhibitor, single point] |
| O=C(Cc1ccc(NC(=O)N2CCSc3ncccc32)cc1)NCc1ccccc1 | – | inconclusive [inhibitor, single point] |
| CC1(C)COC(c2ccc(F)c([N+](=O)[O-])c2)=N1 | – | active: 16.4 µM |
| CC(C)OC(=O)/C(C#N)=C/c1cn(Cc2ccccc2)c2ccccc12 | – | inconclusive [inhibitor, single point] |
| CCOC(=O)C1(CCCc2ccccc2)CCN(C(=O)CN2C(=O)CSC2=O)CC1 | – | inconclusive [inhibitor, full curve, poor fit] |
| CC1(C(=O)Nc2ccccc2)CCN1C(=O)CCc1ccc(Cl)cc1Cl (stereo not given) | – | inconclusive [inhibitor, single point] |
| CN(CCc1ccccc1)C(=O)c1cccc(NC(=O)Cc2cccc(NC(=O)C3CCCN(C(=O)C4CCC4)C3)c2)c1 (stereo not given) | – | active: 18.4 µM |
| CCn1c(=O)c2c(nc3n2CCN3c2ccccc2)n(C)c1=O | – | inconclusive [inhibitor, single point] |
| CN(C)CCOC(c1ccc(Cl)cc1)c1ccccn1 (stereo not given) | – | inconclusive [inhibitor, single point] |
| Cc1ccc(-c2nc3ccccn3c2Nc2ccc3c(c2)OCCO3)s1 | inactive: -15.2% | – |
| CC1CCCC(C)N1C(=O)COC(=O)CCC(=O)c1cccs1 (stereo not given) | inactive: 0.659% | – |
| CCOc1ccccc1-n1c(SCC(=O)N2CCCc3ccccc32)nnc1-c1cccnc1 | – | inconclusive [inhibitor, single point] |
| Cc1ccc(C)c(S(=O)(=O)N2CCN(C(=O)c3ccc(N4CCCC4)c([N+](=O)[O-])c3)CC2)c1 | – | inconclusive [inhibitor, partial curve] |
| COc1cc2c(cc1NCc1ccccn1)oc1ccccc12 | – | inconclusive [inhibitor, single point] |

| SMILES | activity change, negative = growth inhibition | Potency |
| --- | --- | --- |
| COc1cccc(NC(=O)CN2CCN(c3ccc(F)cc3)CC2)c1 | – | inconclusive [inhibitor, single point] |
| CCCn1c(N)c(N2CCCCC2)c(=O)n(CC(=O)Nc2ccccc2C(F)(F)F)c1=O | inactive: -22.2% | – |
| Cc1cnc(SCc2ccccn2)nc1C1CCCN(C(=O)c2ccc3c(c2)OCO3)C1 (stereo not given) | – | active: 20.6 µM |
| CCCOc1ccc2c3c(c(=O)oc2c1OCCC)CCCC3 | – | inconclusive [inhibitor, single point] |
| S=C(NCCN1CCOCC1)N/N=C/c1cccs1 | – | active: 18.4 µM |
| Cc1cc(C)cc(NS(=O)(=O)c2ccc(-c3cnc(C4CC4)o3)cc2)c1 | – | active: 0.82 µM |
| CCOc1ccc(C2N3CC4(C(C)C)CN2CC(C(C)C)(C3)C4=O)cc1OC (stereo not given) | – | inconclusive [inhibitor, single point] |
| CC(C)CCn1c(=O)c2ccccc2n2c(CCC(=O)NC3CCN(Cc4ccccc4)CC3)nnc12 | – | inconclusive [inhibitor, single point] |
| COc1ccc(NC(=O)CN(C)C(=O)CCNC(=O)c2ccccc2OC)cc1 | inactive: 7.31% | – |
| C=CCOc1c(Br)cc(CNc2ccc(NC(=O)C(C)C)c(OC)c2)cc1OCC | – | active: 20.6 µM |
| COc1ccc(/C=C/C(=O)N2CCC(c3nc4ccccc4o3)CC2)cc1OC | – | inconclusive [inhibitor, single point] |
| CC(C)(C)c1ccc(S(=O)(=O)N2CCN(c3nc(-c4ccccc4)nc4ccccc34)CC2)cc1 | inactive: -18.8% | – |
| CCCCCCCOc1ccc(OC(=O)c2cccnc2)cc1 | – | active: 5.17 µM |
| Cc1ccc(NC(=O)C2c3ccccc3Oc3ccccc32)nc1 | – | inconclusive [inhibitor, single point] |
| Cc1ccc(COc2ccc3oc(-c4ccccc4)c(C(=O)O)c3c2)cc1 | inactive: 7.19% | – |
| CCCCn1c(Cc2ccccc2)n[nH]c1=S | inactive: -20.3% | – |
| COc1ccccc1Cc1c(-c2ccco2)nc2c3ccccc3ccn12 | – | active: 23.1 µM |
| CC(CCN1CCC(n2nccc2NC(=O)c2ccccc2Cl)CC1)c1ccccc1 (stereo not given) | – | inconclusive [inhibitor, partial curve, poor fit] |
| CCOc1nc(-c2ccc(C)cc2)ccc1-c1noc(COC)n1 | inactive: -5.85% | – |
| COc1cc(CN2CCC(n3nccc3NC(=O)C3CC3)CC2)cc(OC)c1 | inactive: -2.97% | – |
| Cc1ccc(NC(=O)c2ccc(=O)n(CC(=O)Nc3c(C)cc(C)cc3C)n2)cc1 | – | inconclusive [inhibitor, single point] |
| COc1cccc(C(c2nnnn2Cc2ccco2)N2CCN(c3cccc(C)c3C)CC2)c1OC (stereo not given) | – | inconclusive [inhibitor, single point] |
